# The list shows a part of the results. Sequences were assembled here from the parent chain. Inactive controls read about 0.05.
# B1: TEV protease; numbered along this chain (parent)
# chain: MGESLFKGPRDYNPISSSICHLTNESDGHTTSLYGIGFGPFIITNKHLFRRNNGTLVVQSLHGVFKVKDTTTLQQHLVDGRDMIIIRMPKDFPPFPQKLKFREPQREERICLVTTNFQTKSMSSMVSDTSCTFPSGDGIFWKHWIQTKDGQCGSPLVSTRDGFIVGIHSASNFTNTNNYFTSVPKNFMELLTNQEAQQWVSGWRLNADSVLWGGHKVFMVKPEEPFQPVKEATQL
# Variants of: B1
# Test: raw area under fraction-flipped curve 0-4 h after induction (AUC4h, not background-subtracted), DNA-recorder readout of cleavage of the substrate (dimensionless); higher = more cleavage of the substrate by the protease variant
# Settings: temperature: 34 °C; time window: 0-4 h after rhamnose induction
# 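Note: Bxb1 expression induced with 0.2% (w/v) L-rhamnose at OD600 near 0.5, cultures sampled hourly, flipped fraction per protease–substrate barcode pair counted by paired-end Illumina sequencing.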
Variant,area with substrate ECLYFQS,area with substrate EFLYFQS,area with substrate EDLYFQS,area with substrate EELYFQS,area with substrate EHLYFQS,area with substrate EILYFQS,area with substrate EMLYFQS,area with substrate ETLYFQS,area with substrate EVLYFQS,area with substrate EWLYFQS
Q118W,0.0989,0.1,,,,,,,,
S201E,0.102,,0.108,0.109,0.0897,0.0811,0.0897,0.107,0.0928,0.112
S201C,0.119,,,0.105,,0.112,,0.107,0.12,0.0929
S209G,0.1,,0.122,,0.103,0.11,0.0892,0.109,0.0897,
S209A,0.0986,,,,,0.102,0.118,,,
L190T,0.138,0.132,,,,0.113,,0.12,0.0872,
L190P,0.0985,,,,,0.0693,,,0.081,0.0634
Q194W,0.102,,,,0.143,0.0837,,,0.0853,
Q194I,0.0949,,,,,,0.102,,,0.15
Q194C,0.0895,,0.133,,,0.0828,0.144,,,0.11
I139T,0.16,,0.166,,,,,,0.167,
V183G,0.0658,,,,0.0657,0.0423,,0.0599,0.0564,
P155G,0.0787,,0.0373,0.0619,,0.0608,0.0752,,,
A170K,0.0642,0.0776,,,,0.0336,0.06,0.0708,,0.0538
F187G,0.0706,0.0644,0.0705,,0.0654,0.0481,0.0691,0.0718,,
F187A,0.102,0.0814,,,0.0804,0.0776,,,0.0744,
S154N,0.136,,,,,,,,,
S154A,0.0982,,0.0948,,0.104,0.0786,0.107,0.0772,0.0973,0.0624
S154I,0.0983,,0.122,,,,,,0.11,
S154D,0.0775,,,,0.074,,0.04,,0.0591,

Variant,area with substrate ECLYFQS,area with substrate EFLYFQS,area with substrate EDLYFQS,area with substrate EELYFQS,area with substrate EHLYFQS,area with substrate EILYFQS,area with substrate EMLYFQS,area with substrate ETLYFQS,area with substrate EVLYFQS,area with substrate EWLYFQS
T147S,0.091,,,,0.112,,,,0.0541,
M188R,0.113,,,0.0897,,,0.0733,,,
E195S,0.146,,,,,0.0946,,0.137,0.127,
G153T,0.0514,,0.0614,0.0607,0.141,0.0336,0.0444,,0.0409,0.0488
G153Q,0.05,,,,,,,,,
G153C,0.0506,,,,0.0555,,,0.0558,,
G153L,0.0481,,,,,,,0.0715,,0.0371
G153M,0.0549,,0.0484,,,,,,0.0436,0.0483
S158V,0.0532,0.0725,0.0508,0.0419,0.0642,0.0502,,,0.0602,0.0662
F163Y,0.155,,,,,0.103,0.125,,0.0874,0.112
F180S,0.085,,,,,0.078,,,,
W199S,0.0543,,,0.0691,,,,,0.0506,
N178M,0.145,,,0.207,0.175,,,,,0.177
T174G,0.0789,,,0.0896,,0.0871,,0.074,0.0781,0.106
T129H,0.0597,,0.138,,0.0799,0.0931,,0.137,,
T129D,0.101,0.12,,0.143,,,0.12,0.133,,0.0721
T129K,0.104,,,,,0.101,0.114,0.089,0.0986,0.111
S169K,0.0214,,,,,,,0.0068,,
D137Q,0.106,,0.151,,,0.0898,0.103,0.109,0.0852,0.106
S124G,0.106,,0.137,0.136,,0.0973,,,0.0973,0.0848

# Same assay, conditions: temperature: 34 °C; time window: 0-4 h after rhamnose induction
Variant,area with substrate EPLYFQS,area with substrate ESLYFQS,area with substrate ELLYFQS,area with substrate ERLYFQS,area with substrate EKLYFQS,area with substrate EQLYFQS,area with substrate EGLYFQS,area with substrate EYLYFQS
S201C,0.0508,0.131,,,,,,
S209G,,0.0749,0.0681,0.0737,,,,
L190T,,0.138,,,0.054,0.09,,
L190P,,0.0859,,0.0831,,0.108,0.0727,
Q194W,,0.0853,,,0.102,,,
Q194I,0.121,,,,0.0815,,,0.104
Q194C,,0.0827,0.101,0.0904,,0.103,,
I139T,0.123,,,0.106,,,0.175,
V183G,,0.0521,,0.0656,0.039,0.0526,0.0358,0.0523
P155G,0.0545,0.0607,0.0402,0.0696,0.0598,,0.0457,0.0556
A170K,,,0.0561,,0.0543,,0.0617,
F187G,,0.0618,,0.0664,0.0449,,,
F187A,0.0892,0.071,,0.076,0.0641,0.109,0.0689,0.0943
S154N,,0.157,,,,,0.0654,
S154A,0.0961,0.0854,,0.0584,0.107,0.148,0.089,0.109
S154I,0.116,,,,,,,
S154D,,,0.0662,,,0.062,,
T147S,,0.0768,,0.0685,,,,0.0843

Variant,area with substrate EPLYFQS,area with substrate ESLYFQS,area with substrate ELLYFQS,area with substrate ERLYFQS,area with substrate EKLYFQS,area with substrate EQLYFQS,area with substrate EGLYFQS,area with substrate EYLYFQS
M188R,0.107,0.0846,0.0436,,,,,
E195S,0.0865,,,0.0879,,,0.0963,
G153T,0.0365,0.0497,0.0321,0.0442,,,,0.0554
G153Q,,0.0598,0.0464,,,,,
G153C,0.0547,0.0526,,0.0601,0.0596,0.054,,
G153L,0.0506,0.0321,,0.0562,0.0669,0.046,,
G153M,,0.0936,,,0.0486,0.0642,,
S158V,0.0584,0.0543,0.046,0.0556,0.0318,0.0604,0.0456,
F163Y,,0.108,,0.0971,,,,0.108
F180S,,0.0856,,0.081,,0.0659,,0.0588
W199S,,0.0609,,0.079,0.0606,0.067,,0.0575
N178M,,,,0.204,,,0.167,0.2
T174G,0.099,0.0748,0.0738,0.116,,0.0877,0.0799,
T129H,,,0.0863,,0.161,,0.104,
T129D,,,,,,0.132,,
T129K,,0.0824,0.0923,,0.108,0.0901,,
D137Q,,0.104,0.0576,0.0615,,0.0848,,0.0988
S124G,0.142,0.121,0.105,,,0.15,,0.141
